Experimental data published in ChEMBL document CHEMBL4888484, “Replenishing the malaria drug discovery pipeline: Screening and hit evaluation of the MMV Hit Generation Library 1 (HGL1) against asexual blood stage Plasmodium falciparum ,using a nano luciferase reporter read-out” (2022).
Several values for one entry are separate records, joined by “and”; a condition that tells them apart may be missing. Identical values can stand only once. The whole screen tested about 150,000 compounds, of which about 540 (0.36%) showed an effect of 50% or more. The list shows a part of the results.

Test system: Plasmodium falciparum
Assay: Primary screen in NF54 nanoGlo assay, in single point, at 2uM, 72h; a lower Z score goes with more inhibition
Format: functional, Erythrocyte
Conditions: timepoint 72 hour

Row | SMILES | % Inhibition | Z score | % Inhibition (2 µM)
1 | COc1cccc(CN2CC=C(C(=O)N3CCN(c4cc(C)ccc4C)CC3)CC2)c1 | -5% | 0.98 | –
2 | Cc1ccc2c(c1)[C@H]1OCC[C@H]1C(c1ccccc1)N2 (stereo partly drawn) | 0% | 0.08 | –
3 | O=C(NCCC(F)(F)F)c1cc(Cl)cc(F)c1Br | -4% | 0.63 | –
4 | Cc1c(CCC(=O)N(Cc2ccco2)c2cccc(F)c2)cnn1C | -2% | 0.32 | –
5 | CC(C)NC(=O)CNC(=O)NCC(=O)NC1CCCCC1 | -13% | 1.16 | –
6 | Cc1ccc2c(c1)N(C(=O)CCc1ncc(C(C)(C)C)o1)CCCO2 | 7% | -1.04 | –
7 | COCCN1C[C@@H](Cc2ccnc(OC)c2C#N)CC1=O | 22% | -2.77 | –
8 | Cc1cccc(N(C)C(=O)CC[C@H]2CCCO2)n1 | -2% | 0.32 | –
9 | CCn1ccc(CN2C(=O)COc3ccc(F)cc32)n1 | -5% | 0.74 | –
10 | Cc1cc(C)c(C#N)c(N(C)CCN2CCCC2)n1 | -16% | 2.26 | –
11 | Cn1c(CN2C[C@H](Cc3ccccc3)[C@@H](O)C2)cc(=O)n(C)c1=O | -1% | 0.1 | –
12 | CC(C)(C)c1cccc(Oc2nn[nH]n2)c1 | 33% | -1.02 | –
13 | Cc1cc(NC(=O)Nc2ccc(Cc3nnc4ccccn34)cc2)on1 | 7% | -1.03 | –
14 | O=C(NCc1ccc2c(c1)OCO2)[C@H]1CCN(c2cn[nH]c(=O)c2)C1 | -12% | 2.19 | –
15 | CC(=O)N1CCCN(S(=O)(=O)N2CCCCCC2)CC1 | -1% | 0.13 | –
16 | Cc1nnc(CN(C)CC2(N3CCOCC3)CCCCC2)o1 | -7% | 1.15 | –
17 | COc1ccc(CCNC(=O)c2coc(NC(=O)c3cnccn3)n2)cc1OC | 4% | -0.53 | –
18 | CCCc1nc(CN(C)c2ccc(OC)c(Cl)c2)no1 | 2% | -0.31 | –
19 | CS(=O)(=O)NCCNC(=O)NC1(Cc2ccc(Br)cc2)CCCCC1 | -2% | 0.19 | –

Row | SMILES | % Inhibition | Z score | % Inhibition (2 µM)
20 | CCN(C)Cc1cncc(-c2ccc3ccccc3c2)c1 | 4% | -0.63 | –
21 | CCCn1nc(C2CCOCC2)nc1-c1ccc(CN)cc1 | -10% | 1.66 | –
22 | COCC1(Cn2cnc(-c3ccccc3)c2-c2cnn(C)c2)CCCC1 | -6% | 0.75 | –
23 | CN(C)C1COCC1Oc1cc(C(F)(F)F)ccn1 (stereo not drawn) | -5% | 0.73 | –
24 | CN(C)S(=O)(=O)N1CCn2nc3c(c2C1)CCC3 | 18% | -2.32 | –
25 | COC(=O)c1cc(C)nc2c1c(=O)n(CC(=O)Nc1ccccc1F)c(=O)n2-c1cccc(OC)c1 | -1% | 0.16 | –
26 | CCS(=O)(=O)c1ccc(-c2cnn(C)c2)s1 | -8% | 1 | –
27 | O=C(NCc1ccccc1)N1C[C@@H](CO)C[C@@H](CN2CCOCC2)C1 | -17% | 1.72 | –
28 | CCCC(=O)N(CCOC)CC1(C)CCOCC1 | -7% | 1 | –
29 | CCOC(=O)c1ccc(N2C(=O)[C@@H]3[C@H](Cc4ccccc4)N[C@]4(C(=O)Nc5ccccc54)[C@@H]3C2=O)cc1 | -8% | 1.01 | –
30 | COc1ccccc1CN(c1ccc2nnnn2n1)C1CC1 | -1% | 0.13 | –
31 | COc1cc([C@H]2N(c3ccccn3)C(=O)[C@@H]3CCCN32)cc(OC)c1OC | 6% | -0.77 | –
32 | CN(CC(=O)N1CCCC1)CC1(CO)CCCC1 | -5% | 0.83 | –
33 | Cc1cc(C(=O)NCc2c[nH]nn2)no1 | -5% | 0.46 | –
34 | CC(C)NC(=O)Cn1ncc(N(C)Cc2ccccc2)cc1=O | -7% | 1.14 | –
35 | C[C@H]1CCCN(S(=O)(=O)N(CCC#N)CCN2CCOCC2)C1 | 7% | -1.15 | –
36 | Nc1nccc(-c2cnc(-c3cccc(Cl)c3)s2)n1 | -8% | 1.11 | –
37 | CCCNC(=O)CC[C@H]1NC(=O)c2ccccc2NC1=O | 2% | -0.19 | –
38 | CCOc1ncccc1CNc1nc(C2CCCC2)nc2c1CNC2 | -3% | 0.41 | –

Row | SMILES | % Inhibition | Z score | % Inhibition (2 µM)
39 | Cc1csc(CNc2cccc(-n3cnnc3)c2)n1 | -5% | 1.02 | –
40 | Cc1nc(C)c(S(=O)(=O)N2CC=C(c3c(F)cccc3F)CC2)s1 | -7% | 0.68 | –
41 | CC(CO)C(NC(=O)c1cnc(C2CCCO2)s1)c1ccc(Br)cc1 (stereo not drawn) | -3% | 0.49 | –
42 | CCc1c(C(=O)NCc2cccnc2)csc1C | -25% | 2.31 | –
43 | Cc1noc(C)c1C(=O)Nc1n[nH]c(C(C)C)n1 | – | – | 3% and -12%
44 | Cc1ccc2c(C(=O)NCc3c(C)n[nH]c3C)cc(C)nc2c1 | 15% | -1.96 | –
45 | O=C(O)CC[C@@H]1CN(Cc2cccnc2)CC[C@@H]1N1CCN(c2ccccc2F)CC1 | 15% | -2.11 | –
46 | NC(=O)N1CCC[C@H](C(=O)OCCC#Cc2ccccc2)C1 | -7% | 0.85 | –
47 | Cc1ccc(C(=O)Nc2ccc3c(c2)C(=O)N(C[C@H]2CCCO2)C3=O)cc1 | 3% | -0.32 | –
48 | Clc1ccc(-n2nnnc2-c2cnc(-c3cnccn3)nc2-c2cccs2)cc1 | -10% | 1.12 | –
49 | Cc1nc(COC(=O)c2ccncc2)oc1C | -7% | 1.33 | –
50 | O=C1Nc2ccc(S(=O)(=O)Nc3ccccc3)cc2C1=O | -11% | 1.66 | –
51 | CCC(=O)c1ccc(Cl)c(S(=O)(=O)NC(=O)COC2CCCCC2)c1 | 0% | 0.01 | –
52 | c1cnc(-n2ncc3c(N[C@H]4CCOC4)ncnc32)nc1 | -9% | 0.81 | –
53 | CC(C)Oc1cc(CNS(=O)(=O)C2Cc3ccccc3C2)ccn1 | -2% | 0.34 | –
54 | Cc1cccc(C)c1OCCC(=O)NCC#CCN(C)C | 14% | -1.87 | –
55 | O=C(C1CCCCN1C(=O)C1CC2CCC1C2)N1CCOCC1 (stereo not drawn) | -1% | 0.18 | –
56 | Cc1nnc(CN2CCC([C@H](O)c3ccnn3C)CC2)s1 | -10% | 1.48 | –
57 | O=C(c1ccoc1)N1CCN(Cc2ccccc2)[C@@H]2CS(=O)(=O)C[C@@H]21 | 12% | -1.53 | –
